The labels stand for the following.
B1: LINE1-full (parent)
chain: UACGUAGGUGGUUUUCCCCUGAUAGUGCUAAGGGGGCCUGGAAGUUUGGACUGGGCAGAGCUCAACACAGCGUGGCAAAGUGGCUGUGGCUAGACUGCCUCUCUGGAUUCCUCGUCACUCAGCAGGGCAUCUCUGAGAGAAAUGCC

The source gives no read counts; variants with many changes may rest on few reads.

Variants of B1 are the subject of the data set. Nature of the data set: self-cleavage, relative activity (ratio to wild type); higher = more cleavage; in vitro, sequencing; the parent is a self-cleaving ribozyme.
For the variant A30C A94G A142G, the self-cleavage is 0.48.

U62A U73A U112C: the self-cleavage was 0.06.

As for C19U U29C U102A, the self-cleavage is 0.25.

As to A24U A50G U112C, the self-cleavage came to 2.04.

For A42G U108C U143C, the self-cleavage amounted to 2.3.

U5C G41U U115C: the self-cleavage worked out at 1.48.

For the variant U62A U102C A141G, the self-cleavage stood at 0.1.

Regarding U15C A24C U47C U85G, the self-cleavage was 0.84.

U15A C16A A94G A141G: the self-cleavage was 0.

For the variant U12C U46C A77G, the self-cleavage is 0.63.

Regarding U12C U108A C123U, the self-cleavage turned out to be 1.65.

In the case of U9C A30G U96C, the self-cleavage is 0.57.

Consider U9C U85C A140G, for which the self-cleavage stood at 1.02.

With U13C A79U A94G, the self-cleavage amounted to 0.25.

Take U52C A107G C113U A124G A142G: the self-cleavage was determined as 0.53.

As for C61U A64G A107G, the self-cleavage is 0.13.

Regarding U13C U14C U52A A59G, the self-cleavage turned out to be 0.14.

Consider U73C A92G A124C, for which the self-cleavage came out at 0.27.

Take A6U U23C U62C: the self-cleavage came to 0.37.

Turning to U15C U91G A140C, the self-cleavage was 0.21.

On to U9C U47C U62C U96C A129U, for which the self-cleavage came out at 0.

On to U45C A124G A142G, for which the self-cleavage was determined as 0.57.

As to U23A C71U C90A G137U U143C, the self-cleavage was determined as 0.02.

Consider A77G A79G U96A C113U, for which the self-cleavage was determined as 0.1.

Regarding G7A A42G A57U A65U U143C, the self-cleavage came out at 0.04.

Turning to U15A A67U U85C, the self-cleavage came to 0.15.

On to C18U C51U A140U, for which the self-cleavage was determined as 1.18.

As to U81C A138G C146U, the self-cleavage stood at 1.55.

In the case of U100C G106A A140G, the self-cleavage was 2.32.

In the case of U15G U29C A117G, the self-cleavage stood at 0.

In the case of C113U A117U A129G, the self-cleavage is 1.89.

Consider U9A U108C G137U, for which the self-cleavage turned out to be 1.3.

As for U20A A57U U104C, the self-cleavage is 0.27.

Consider U20C A65G A94G C101A A124G U143C, for which the self-cleavage turned out to be 0.

Take U15A C18U U104C A136G A141G: the self-cleavage was 0.

Regarding A30G A124U A138G, the self-cleavage stood at 1.78.

In the case of U14C U119C U132A, the self-cleavage is 1.27.

As for U13C C19U U62A A77G U100C A142G, the self-cleavage is 0.

As to U39C G89U A140G, the self-cleavage stood at 0.05.

Regarding U15C A42U U52C A129U, the self-cleavage came to 1.58.

Take U45C A77G U108C U130A: the self-cleavage came out at 1.67.

On to U14C U26C A57U U87G U100A, for which the self-cleavage turned out to be 0.26.

Consider A43U G74U U96A A117C U134C, for which the self-cleavage turned out to be 0.06.

Take U47A U108C A124U: the self-cleavage was determined as 1.3.

In the case of U29C U102G U132C, the self-cleavage came out at 0.

As to U1C U134C A136G, the self-cleavage worked out at 1.19.

Turning to U39C A43G A57U U81A U102C, the self-cleavage is 0.11.

Take U15A G75A A136G: the self-cleavage came out at 0.85.

Regarding U13A U39C U115C, the self-cleavage worked out at 0.54.

For U13A U73C A78G, the self-cleavage was 0.81.

As to U5C U62C A77G, the self-cleavage was found to be 0.

As to C71U A78G U109C A124G, the self-cleavage came out at 0.19.

Take A57G U62C G105A: the self-cleavage amounted to 0.03.

With U14C A24U A129G U132C, the self-cleavage came out at 1.15.

Turning to U52A U85G A121G, the self-cleavage was determined as 0.24.

Turning to U15A U87C G126C, the self-cleavage is 0.3.

In the case of C17A U112C A141G, the self-cleavage is 0.72.

Turning to A24U A57U U87A, the self-cleavage was found to be 0.06.

On to U45C C68U A141U, for which the self-cleavage amounted to 0.14.

Regarding U20G A79G U112A G137U, the self-cleavage was 0.79.

Consider U45G A50U A69G U81A U100C, for which the self-cleavage stood at 0.61.

As to A67G A138G A140G, the self-cleavage was 0.48.

With U26C A121G U143C, the self-cleavage amounted to 0.

On to U102A U112A A124G, for which the self-cleavage is 1.32.

Take U14C A121G G122U: the self-cleavage was found to be 1.98.

With C56U U62C A141G, the self-cleavage is 0.06.

A43G U46A C98A U130C: the self-cleavage was 0.18.

Consider U45C C61U A121G, for which the self-cleavage is 0.02.

As for A6U A78U U130C, the self-cleavage came to 1.51.

Turning to U39A U47G U112C, the self-cleavage was determined as 1.71.

Take U47A U62C U119A U132C A136G: the self-cleavage is 0.

For U13C U81C U102C A129U, the self-cleavage was found to be 0.69.

Consider A31G G36C G58U A79G U81A U100A C113A A140G, for which the self-cleavage is 0.01.

As for C19U A65G U104A U119C, the self-cleavage is 0.66.

For the variant G49A U115C U134C A140G, the self-cleavage was determined as 1.03.

Consider U13C U20G A31U, for which the self-cleavage was 0.33.

U13C U15C U73C A121U U143C: the self-cleavage stood at 0.96.

As for U96A U100C U108C A121G, the self-cleavage is 0.19.

Turning to A77G U132C A142U, the self-cleavage came to 1.96.

With A50G U108C G144A, the self-cleavage was determined as 1.65.

U13C U52A A138G: the self-cleavage was determined as 1.58.

On to U5C A50G U102A G114A A117G C123U A136G A140G, for which the self-cleavage came to 0.32.

On to U14C A22U G41U, for which the self-cleavage came to 1.01.

As to U39A A69U U87A, the self-cleavage came out at 0.01.

Regarding A43G U62C A129G, the self-cleavage is 0.

For U109C A129G A136G, the self-cleavage was 1.24.

Regarding U9C U13A A129G, the self-cleavage amounted to 1.19.

For the variant A42G A117U U143C, the self-cleavage is 1.58.

Take U1A C37U C99U: the self-cleavage was 0.91.

For the variant G27A A59G U73A A136G, the self-cleavage was determined as 0.14.

Regarding U15C U39C U46C U87A, the self-cleavage turned out to be 0.

In the case of A42U A77C A107U U132C, the self-cleavage came out at 0.17.

For the variant A43G A50G U96A U108C G126A, the self-cleavage stood at 0.

For the variant U5A G35U A64G A67U, the self-cleavage came to 0.02.

In the case of U5C A77G G82A, the self-cleavage turned out to be 2.11.

In the case of G36A U62A A65U U104C, the self-cleavage came to 0.06.

Turning to U9A C19U U26C U29C A79G, the self-cleavage was found to be 0.

In the case of U62A A79U U108C, the self-cleavage is 0.03.

With G49A A136G U143C, the self-cleavage was determined as 1.08.

For U14C U91C U109G A129G, the self-cleavage is 0.

Take A43G A69G U100C U143C G144A: the self-cleavage is 0.

For the variant C18A U81A A129G A138G, the self-cleavage was determined as 2.41.

On to U14C A57G A64C A141G, for which the self-cleavage was determined as 0.11.

For A22U U26C G58U U115C A136U A141C, the self-cleavage is 0.

With A43G U45C C66U U112C A141G, the self-cleavage was 0.04.

With C66U C90U U104C, the self-cleavage amounted to 0.02.

As to A65G A79U U100C, the self-cleavage came to 0.06.

For the variant U26C G35C U46C U104C A117U, the self-cleavage was 2.16.

Regarding A65G G97A U109A, the self-cleavage turned out to be 0.01.

As for G4U U15A A43U U130C, the self-cleavage was 1.11.

C3U U15C C19U U23C: the self-cleavage came to 0.35.

Regarding A22G A50U U132G, the self-cleavage was 1.04.

Take A50U U73C U132C: the self-cleavage is 1.52.

Take A30G G53A A121G A140G: the self-cleavage amounted to 1.55.

For the variant U20C U109C U112C U134C, the self-cleavage amounted to 2.63.

On to G33A G97U A107G, for which the self-cleavage came out at 0.02.

Take C56U A79G A136U: the self-cleavage was found to be 0.35.

On to U46C G48A A50G U132C, for which the self-cleavage turned out to be 1.09.

G33U U100C U108C U130C U134A: the self-cleavage worked out at 2.09.

In the case of U12G U26A U87A U91A, the self-cleavage came out at 0.28.

For U62A U115C A140G, the self-cleavage came to 0.01.

As to U15C U46C A57G U87A U100C, the self-cleavage was determined as 0.37.

As for A79G U102A G106A, the self-cleavage was found to be 1.05.

Consider A69U U73A A140G, for which the self-cleavage worked out at 0.

As for A50U A67G A140G, the self-cleavage was 0.31.

Take G55U U108G A141G: the self-cleavage is 0.09.

For U5C A59U A142C, the self-cleavage worked out at 0.

As for U26C A30G U102C A140G U143A, the self-cleavage turned out to be 1.31.

With U20C U46C U52C, the self-cleavage was 1.24.

As for A94G C110A A136U, the self-cleavage came to 0.2.

As to A2G U96C U132C, the self-cleavage was found to be 0.

With A78G A79G A129U, the self-cleavage came out at 0.63.

Consider U20G A59G U108C U132C, for which the self-cleavage worked out at 0.38.

For the variant A59G U102A A129G, the self-cleavage stood at 0.

Consider U12C C28U A64G, for which the self-cleavage was determined as 0.27.

On to U12C U73A A78U U91C, for which the self-cleavage was 0.56.

For U5A A42G U109A A141C, the self-cleavage is 1.56.

As to C61U U96A C113U, the self-cleavage was 0.03.

Take U46C U73C U112C: the self-cleavage turned out to be 1.89.

Consider U23C G35U U62C A94G U100C, for which the self-cleavage came out at 0.

A42G A43G A92U: the self-cleavage is 0.5.

For G8A A24U U134C, the self-cleavage came out at 0.96.

As to U62C A79G A138G, the self-cleavage stood at 0.1.

Take U1C U29A A31G: the self-cleavage was found to be 0.

With U12C U102A A136G, the self-cleavage was determined as 0.62.

Turning to U29C G35U U39G A42G G72C A140G, the self-cleavage was 0.78.

Take C37G U39A A50G: the self-cleavage stood at 0.07.

Turning to A22G C68U U73A A79G A124U, the self-cleavage was determined as 0.08.

For G40A A42G U115C, the self-cleavage came to 0.

With A2G G106U U115C, the self-cleavage is 0.95.

Take A107G U119A A129U: the self-cleavage was 1.07.

Consider G32A A42G U52C, for which the self-cleavage was found to be 1.01.

For the variant U104A U109A A142G C145A, the self-cleavage turned out to be 0.8.

U1C U14C A42G C98U U112C: the self-cleavage was found to be 1.29.

Consider U13C A69U A117U, for which the self-cleavage was found to be 0.06.

On to U12C G44A U132C, for which the self-cleavage was determined as 1.57.

Turning to U9A U46A U130C, the self-cleavage is 0.81.

As for A24U U39C A50U A67G A142G, the self-cleavage worked out at 0.47.

For the variant U5C U12A U73C U102C, the self-cleavage was determined as 0.84.

A6G A77U A79U U85A: the self-cleavage is 0.32.

A57U C99U U104A: the self-cleavage is 0.05.

Regarding U15C U134A U143C, the self-cleavage came to 1.31.

Turning to U46C A92G U102C C133A, the self-cleavage came out at 0.

Turning to U14C U81A C146U, the self-cleavage was found to be 1.13.

As for U20C U45C A142G, the self-cleavage was 1.33.

For the variant G34A U108C G114A A138G, the self-cleavage turned out to be 1.66.

Take A67G A92G U132C: the self-cleavage was 0.

For the origin of these results see the RNAGym collection of RNA variant scans (doi:10.7554/elife.90254).
